Results are given in words; binding and its absence hold for the method and conditions named. In cells and extracts the contact can be indirect. Some results given as binding are weak or reduced against the parent protein; the word gives no strength.
B1: LARP7 (natural protein, human (endogenous in Jurkat), UniProt Q4G0J3 1-582, looked up)
chain: METESGNQEKVMEEESTEKKKEVEKKKRSRVKQVLADIAKQVDFWFGDANLHKDRFLREQIEKSRDGYVDISLLVSFNKMKKLTTDGKLIARALRSSAVVELDLEGTRIRRKKPLGERPKDEDERTVYVELLPKNVNHSWIERVFGKCGNVVYISIPHYKSTGDPKGFAFVEFETKEQAAKAIEFLNNPPEEAPRKPGIFPKTVKNKPIPALRVVEEKKKKKKKKGRMKKEDNIQAKEENMDTSNTSISKMKRSRPTSEGSDIESTEPQKQCSKKKKKRDRVEASSLPEVRTGKRKRSSSEDAESLAPRSKVKKIIQKDIIKEASEASKENRDIEISTEEEKDTGDLKDSSLLKTKRKHKKKHKERHKMGEEVIPLRVLSKSEWMDLKKEYLALQKASMASLKKTISQIKSESEMETDSGVPQNTGMKNEKTANREECRTQEKVNATGPQFVSGVIVKIISTEPLPGRKQVRDTLAAISEVLYVDLLEGDTECHARFKTPEDAQAVINAYTEINKKHCWKLEILSGDHEQRYWQKILVDRQAKLNQPREKKRGTEKLITKAEKIRLAKTQQASKHIRFSEYD
notes: source: endogenous, Jurkat T-cell whole cell extract
B2: HEXIM1 (natural protein, human (endogenous in Jurkat), UniProt O94992 1-359, looked up)
chain: MAEPFLSEYQHQPQTSNCTGAAAVQEELNPERPPGAEERVPEEDSRWQSRAFPQLGGRPGPEGEGSLESQPPPLQTQACPESSCLREGEKGQNGDDSSAGGDFPPPAEVEPTPEAELLAQPCHDSEASKLGAPAAGGEEEWGQQQRQLGKKKHRRRPSKKKRHWKPYYKLTWEEKKKFDEKQSLRASRIRAEMFAKGQPVAPYNTTQFLMDDHDQEEPDLKTGLYSKRAAAKSDDTSDDDFMEEGGEEDGGSDGMGGDGSEFLQRDFSETYERYHTESLQNMSKQELIKEYLELEKCLSRMEDENNRLRLESKRLGGDDARVRELELELDRLRAENLQLLTENELHRQQERAPLSKFGD
notes: as for B1

Protein sequences, listed by entry. Tags and fused reporters are not part of them. Lines headed by an entry give the natural chain unless they say otherwise; changes in a name come on top.
UniProt P50750: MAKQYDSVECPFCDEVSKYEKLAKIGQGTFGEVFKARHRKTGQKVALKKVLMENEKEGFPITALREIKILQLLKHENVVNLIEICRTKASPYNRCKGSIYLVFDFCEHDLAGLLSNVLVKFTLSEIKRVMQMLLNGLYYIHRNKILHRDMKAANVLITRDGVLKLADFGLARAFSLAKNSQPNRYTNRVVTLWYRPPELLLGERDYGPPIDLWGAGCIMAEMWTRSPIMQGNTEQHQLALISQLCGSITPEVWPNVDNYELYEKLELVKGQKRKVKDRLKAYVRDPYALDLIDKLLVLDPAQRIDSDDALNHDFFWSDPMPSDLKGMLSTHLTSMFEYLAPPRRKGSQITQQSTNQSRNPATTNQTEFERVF

What was measured:
[1] = biological target: FLAG-HEXIM1 (UniProt O94992); assay: co-IP; anti-FLAG IP of FLAG-HEXIM1 from whole cell extracts of 2D10 cells, unstimulated or PMA for 1 h with or without U0126, FLAG peptide elution, Western blot
[2] = biological target: T1, FLAG-CDK9 T186D (human, UniProt P50750 1-372, T186D); assay: co-IP; anti-FLAG M2 agarose IP of FLAG-CDK9 wildtype or mutants from whole cell extracts (lysis buffer A) of Jurkat 2D10 cells, FLAG peptide elution, Western blot; densitometry normalised to total immunoprecipitated CDK9, five experiments
T1 construct: also called T186D CDK9

[3] = biological target: T2, FLAG-CDK9 T186A (human, UniProt P50750 1-372, T186A); assay: as above
T2 construct: also called T186A CDK9

[4] = biological target: FLAG-CDK9 isoform 1, wild type (human) (UniProt P50750); assay: as above

Binder	binding [1]	binding [2]	binding [3]	binding [4]
B1	binds	no binding (tested: reduced by over 99%)	no binding (tested: reduced by over 99%)	binds
B2	–	no binding (tested: reduced by over 99%)	no binding (tested: reduced by over 99%)	–

Reference: paper PMC3642088, “Phosphorylation of CDK9 at Ser175 Enhances HIV Transcription and Is a Marker of Activated P-TEFb in CD4^+ T Lymphocytes” (PLoS Pathogens, 2013)
